Test results from the supplement of paper PMC12632987.
Whole data set: some 1,800 sequences, median “median log2 fold change of GCK-ALFA target abundance (FLAG IP / Myc IP barcode read proportion)” near 0.14, cut for the lowest 2% near -0.84. This is one part of the list.

T1: TRAF2, Q12933
T1 chain: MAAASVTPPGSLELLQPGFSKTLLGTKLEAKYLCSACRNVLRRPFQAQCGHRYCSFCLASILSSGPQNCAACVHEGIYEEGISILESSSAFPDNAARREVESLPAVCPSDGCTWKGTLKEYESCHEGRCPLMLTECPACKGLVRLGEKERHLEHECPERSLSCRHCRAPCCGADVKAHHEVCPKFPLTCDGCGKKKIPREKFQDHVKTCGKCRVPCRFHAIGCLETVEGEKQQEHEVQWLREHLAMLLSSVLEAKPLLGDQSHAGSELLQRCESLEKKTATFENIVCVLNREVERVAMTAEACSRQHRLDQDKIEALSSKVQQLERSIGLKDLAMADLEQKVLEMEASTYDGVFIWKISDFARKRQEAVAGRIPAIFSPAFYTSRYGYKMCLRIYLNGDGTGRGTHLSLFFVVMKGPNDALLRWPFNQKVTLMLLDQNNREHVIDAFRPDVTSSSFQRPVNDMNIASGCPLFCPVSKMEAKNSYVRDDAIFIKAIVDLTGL

B1: traf2_out_1_27_1018 (protein)
chain: STEELLKLIKETDKKIAESTIEEAKEIVKEALKEASKLGIGEVMILARTLIASEMDPERREAIKEAAIEAFKELGYPQEEIDRLKRAAETIKEKLEKLEA
B2: traf2_out_1_27_1011 (protein)
chain: SEEEENRALREFFRERSKLSPEGRIELAKERVREALKEGIGEARHLAVVIILSEGDKELRERLLEAITETMREAGVSEEDIEEIRRQAESGFERLEKALK
B3: traf2_out_20_3_2248 (protein)
chain: EELKKEAEKLLKEIKKLLKEAEPLLPEEAAKKAKELLEEAEKYFKTDLTEALVKLSELRRLALEQAQAARAAGDEETAKLLEKLAEAAQRAMQKLYELIE
B4: traf2_out_11_169_852 (protein)
chain: EEKEKNRKIIDKALELNDKAKEELKKHALALAKEAGLDTAEVEAIFEAHKGKSLSAIAAALIAWFRAQGKEEEAAAVLAKYEELKEKINKEMTEFIKELE
B5: traf2_out_18_3_1911 (protein)
chain: SEEERKKISDKIDELVDEATAKARETLERLEREHPEFRERYRRLRADLEAGAGPFGILEALAELAKEAGDEELAAEIEAFLAEKRKEMQELVDEYEKLLK
B6: traf2_out_16_104_1404 (protein)
chain: AEAKQAEFDAIIAELEAIADKLQKIANKLYKLYLKADPETKVKLSDALVKASEARRAALEAAERAREARETGGDLAEARAALAKAKEEAAKVEKEVKELE
B7: traf2_out_17_178_1662 (protein)
chain: SKEEERKKISELTDELIDLAEDAAERMLELAEKEGDVSEEELEELREARRRGSATDVLALGERLIPKLKNSEELGALLEEFKARYRELSKEIAEAYERYE
B8: traf2_out_20_38_2037 (protein)
chain: SEEEEEEKKLQEVIDVANEALDKYEKKIAEWKAEGKTVEEIAEAAKEEVRRLLEEVGLEEEAEILVEDIDRALSSPDAERLIARILARAVALVKQKELNK
B9: traf2_out_17_60_1763 (protein)
chain: GPEEEKEELKREARRAIEEARRLVEEVRAKLAAGTLTASEAMDWLVELTEKRRELERLLEEAEKKGEEMEELKRELERAIEEVRRTMNEVGKHLLELLEA
B10: traf2_out_18_167_1822 (protein)
chain: SAETEAEIERLTDELVRVSEIRRLALLALEALRTDPAAADAARDALIAALNEVPEFRPDAAALRAAPRAELPALLERIAERAQRRAQELYERREELKKKQ
B11: traf2_out_11_104_642 (protein)
chain: LTREQAREFNDFAMEQNDKAKELLAAVAEHLAARGHEEEAARVRAALAHPGFGASSYKNLLEELLPQLDAESAAVAQEAIKKIEELIKEASKKLNELEKK
B12: traf2_out_20_3_2088 (protein)
chain: EELEKKLKEALEKAKELIEKAIKLADEETAKKLKELKKKLEEAEKLPLDEQLVALSEVRRELLELAEKAKKEGKEELAKILEKAAEEVNKAMNLAYKIIE
B13: traf2_out_6_156_2425 (protein)
chain: MLEKIKAEAKEEIKKYIKELAKASEEKKIAYISKIAGAVYRALQRMREAGASVEELKAFGEELKATAKKAADEAGLDEETKNLLLSSIDAVTEVALREAA
B14: traf2_out_20_3_2258 (protein)
chain: EELEKEAEKKLKEAEKLFKELAPKLPAETAKKAEELLKKAKEYFKTDKSEALVYVSELRQLALEEAERARAAGDEATAAGLEKLADTLNKLANLLYKIIQ
B15: traf2_out_18_3_1934 (protein)
chain: SEEERKEISDKIDEIVDDVRARARAELDRAAAELPEHADRIAALRAALEAGAAPFGILDALAELYREAGREEEAEAIEEYLREKRKEMQELVDEYEKLIK
B16: traf2_out_17_178_1679 (protein)
chain: TKEEERKKISEYTDKLIDLTEATGTTLLARARADGTISPEELAALEAAIRRGSNRTFLALARRIAPKLATAAEAQALLDAFEAEARELEKKIAEAYEKYE
B17: traf2_out_16_177_1462 (protein)
chain: ELDKIMDRIVVLSKIKRAAEYAIENKKEEAEKYLKEAEKEAEEAGDEEGLKKIKELKELMEKNTEEAKKKLKELAKEAQKEAGKLVDEAEALLKARAAAE
B18: traf2_out_11_169_809 (protein)
chain: EEEEKNREINDFALELNDEARARLKERALELAKAAGLDPAAVEAIFAANAGKSLSAVAAALIAYFKSQGAEAAAAEVLALHEELKDEINKEMTKKIKELE
B19: traf2_out_15_180_1328 (protein)
chain: MTEEELEKRIALASEVADKVQDFLDKLLAEHPELSEEQKAALRELARSVLTLLLNGEEEEAEAVLKRFKEKVDEETAKIAEELYEFAKKQVEEAKKELAA

Target: T1, TRAF2, Q12933
Assay: median log2 fold change of GCK-ALFA target abundance (FLAG IP / Myc IP barcode read proportion) (log2 ratio); each designed protein is fused to an ALFA-tag nanobody in HEK293 cells to bring the named protein to FLAG-tagged glucokinase (GCK); Myc marks an untargeted standard; higher = target protein stabilised (more abundant)
Conditions: target protein: 3xFLAG-MCP-GCK-ALFA reporter; HEK293 landing pad (RPLP)
Procedure, shortened: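 Binders fused to an ALFA nanobody were recombined as a library into HEK293 landing-pad cells, which were induced with 2 μg mL^−1 doxycycline and then transfected to express a FLAG-tagged target and a Myc-tagged standard. After 48 h, circular RNA barcodes recovered by anti-FLAG and anti-Myc immunoprecipitation of lysates were reverse transcribed, amplified and sequenced. Each binder's target abundance is the median log2 ratio of FLAG to Myc barcode read proportions, from barcodes present at ≥10^−7 in both replicates, binders carrying ≥3 barcodes per replicate, a 10^−6 pseudocount and pooled replicates.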

Row | Binder | median log2 fold change
1 | B1 | 0.399
2 | B2 | 0.232
3 | B3 | 0.3
4 | B4 | 0.464
5 | B5 | 0.276
6 | B6 | 0.341
7 | B7 | 0.161
8 | B8 | -1.45
9 | B9 | -0.0301
10 | B10 | 0.336
11 | B11 | 0.0806
12 | B12 | 0.0022
13 | B13 | 0.111
14 | B14 | 0.384
15 | B15 | 0.196
16 | B16 | 0.291
17 | B17 | -0.0546
18 | B18 | 0.202
19 | B19 | 0.251
